B1: CPEB3 Ribozyme (parent)
chain: UAACAGGGGGCCACAGCAGAAGCGUUCACGUCGCAGCCCCUGUCAGAUUCUGGUGAAUCUGCGAAUUCUGCUGUAUAUCUC

Read counts are not given, so values of variants with three or more changes are uncertain.

Variants of B1 are the subject of the data set. The data set is described as follows: self-cleavage, relative activity (ratio to wild type); higher = more cleavage; in vitro, sequencing. The method in brief: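 Barcoded CPEB3 ribozyme mutants, produced by rounds of error-prone PCR, self-cleaved while being transcribed with T7 RNA polymerase for 5 hours at 37°C and during a subsequent 15 min DNase I step before EDTA was added. Sequencing of template-switched cDNA on Illumina gave cleaved and total reads, and DNA sequencing assigned barcodes to variants. Each variant's relative activity is its cleaved/total read fraction divided by the unmutated ribozyme's fraction, averaged across three batches. A variant needed a minimum of 5 reads.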
A75U C79A C81U: the self-cleavage was determined as 1.49.
With U72C G73U U78C U80C the figure was 1.32; with U72C U76A U78A, 1.27; with G70C U72C U80A, 0.26.
On to U72C U74C U80A, for which the self-cleavage is 1.26.
In the case of U72C A77G C81A, the self-cleavage amounted to 1.3.
With U69G U74C U78C the figure was 0.43.

Source of the values: the RNAGym collection of RNA variant scans (doi:10.1093/nar/gkz1192).
